According to PubChem BioAssay AID1347073 (National Center for Advancing Translational Sciences (NCATS), 2019):
Screen size: about 45,000 compounds; about 200 (0.44%) were called active. About 7% were inconclusive and are not listed. The call rests on the fitted dose curve; in most records, active means well fitted activation curve with a large enough effect; inconclusive means small, poorly fitted or top-dose-only effect; inactive means no such curve, though single readings can be large or run the other way. This is one part of the list.

assay: qHTS of TDP-43 Inhibitors: NCGC Sytravon Library Screen; conditions: yeast TDP-43 toxicity rescue, BacTiter-Glo growth, 24 h; series mostly up to 46.1 µM; growth rescue (activation): at the top concentration; further: nearly all actives have a fitted effect of over 55% in size; on growth rescue (activation): 0% is about no effect
In short: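 TDP-43-expressing yeast, pregrown in raffinose, seeded at OD600 0.02 in galactose medium with compound for 24 hr at 30 deg C. Growth read by BacTiter-Glo luminescence, so rescue of toxicity appears as activation.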
Potency means the concentration at half of the fitted maximal effect.

Row | SMILES | growth rescue (activation) | Potency
1 | CCN(CC)C(CNC(=O)c1cc(=O)[nH]c2ccccc12)c1ccccc1Cl (stereo not given) | inactive: 1.01% | –
2 | COc1ccc(NC(=O)Cc2c(SC)c3ccccc3n2Cc2ccccc2)cc1 | inactive: 9.61% | –
3 | Cc1cc(NS(=O)(=O)c2ccc(NC(=O)C3CCCCC3)cc2)no1 | inactive: -1.47% | –
4 | O=C(NCc1ccccc1)c1cccc(S(=O)(=O)N2CCCCC2)c1 | inactive: 13.5% | –
5 | CCCCC(=O)Nc1nnc(SCC(=O)NC2CC2)s1 | inactive: -9.26% | –
6 | CC(C)CN(C(=O)c1cc2ccccc2o1)c1c(N)n(CC(C)C)c(=O)[nH]c1=O | inactive: 11.3% | –
7 | CCOc1ccccc1NC(=O)CN1CCC(NC(=O)Nc2ccccc2)CC1 | inactive: -0.377% | –
8 | C=C1CSc2nc(=O)c3c(C)c(C)sc3n21 | inactive: 4.48% | –
9 | CCOC(=O)c1oc2c(CN3CCN(CCO)CC3)c(O)c(CC)cc2c(=O)c1-c1nc2ccccc2s1 | inactive: -2.19% | –
10 | Nc1ccc(C(=O)O)cc1S(=O)(=O)O | inactive: 8.82% | –
11 | CN1C(=O)/C(=C2\SC(N)=NC2=O)c2ccccc21 | inactive: 13.3% | –
12 | Cc1ccc(S(=O)(=O)NNC(=O)C2COc3ccccc3O2)cc1 (stereo not given) | inactive: 8.88% | –
13 | NC(c1csc(NC(=O)Nc2cccc(Cl)c2)n1)c1ccccc1Cl (stereo not given) | inactive: 4.71% | –
14 | CC(C)(C)C1CCC(=NNC(=S)Nc2cccnc2)CC1 (stereo not given) | inactive: -6.16% | –
15 | CN(c1ccccc1C(=O)Nc1ccc(S(=O)(=O)N2CCOCC2)cc1)S(C)(=O)=O | inactive: -31.4% | –
16 | O=C(/C=C/c1cccc([N+](=O)[O-])c1)NCCSCc1cccc(Cl)c1 | – | active: 12.6 µM
17 | CN(CC(=O)NCC1CCCCC1)S(=O)(=O)c1ccc(Cl)cc1 | inactive: -3.43% | –
18 | CCC(=O)N1CCc2cc(S(=O)(=O)Nc3ccccc3C)ccc21 | inactive: 1.27% | –
19 | Cc1ccc(S(=O)(=O)N2CCOCC2)cc1NC(=O)CSc1nccn1C | inactive: 6.99% | –
20 | COc1ccc(NS(=O)(=O)c2c(C)cc(C)cc2C)cn1 | inactive: 18.4% | –
21 | Cc1ccc(-c2csc(NC(=S)NC(=O)c3cc4ccccc4o3)n2)cc1 | inactive: -1.1% | –
22 | Cc1nc(C)c(C(=O)OCC(=O)Nc2ccccc2SCC#N)s1 | inactive: 28.7% | –
23 | CC(C)(C)NC(=O)CN1CCC(NC(=O)C23CC4CC(CC(C4)C2)C3)CC1 | inactive: 1.4% | –
24 | O=C(O)Cc1ccc(NC(=O)c2ccc3c(c2)C(=O)N(CC2CCCO2)C3=O)cc1 (stereo not given) | inactive: 11.5% | –
25 | CCCCCOc1ccccc1C(=O)NCCCCCC(=O)O | inactive: 15.7% | –
26 | CCCCOc1ccc(C(=S)N2CCC(C(N)=O)CC2)cc1 | inactive: 6.51% | –
27 | COc1ccccc1N1CCN(Cc2nc3ccccc3[nH]2)CC1 | inactive: 3.76% | –
28 | CC(C)N1CCCC(C)(C(=O)Nc2ccccc2)C1 (stereo not given) | inactive: 9.51% | –

Row | SMILES | growth rescue (activation) | Potency
29 | O=C(OCc1cncs1)c1ccccc1Cl | inactive: 23.5% | –
30 | O=C(Nc1ccccc1)c1cc([N+](=O)[O-])ccc1N1CCCCC1 | inactive: 9.44% | –
31 | CCc1nc2ccc(C(=O)Nc3cc(-c4ccccc4)ccc3OC)cn2c1N(C=O)CCC(C)C | inactive: 14.1% | –
32 | Cc1ccc(SCC(=O)c2cc(C)c(OC(=S)N(C)C)c(C)c2)cc1 | inactive: 1.6% | –
33 | CC1(C(=O)Nc2ccc3nc[nH]c3c2)CCN1C(=O)c1ccccc1CCc1ccccc1 (stereo not given) | inactive: 0.58% | –
34 | O=C(C(=O)N1CCOCC1)c1cn(CCOc2ccccc2)c2ccccc12 | inactive: 3.24% | –
35 | CCN(CC)CCNc1nc(SC)nc2sc3c(c12)CCN(C)C3 | inactive: 3.23% | –
36 | CCCn1c(SCC(=O)NCCc2ccccc2)nnc1C(C)C | inactive: 19.6% | –
37 | CCCC(=O)Nc1nnc(/C=C/c2ccc(OC)cc2)s1 | inactive: 4.13% | –
38 | CCOc1ccc2c(c1)c(N=O)c(O)n2C | inactive: 4.41% | –
39 | COCCn1c(Cc2ccccc2)nnc1SCC(=O)NC1CC1 | inactive: -3.54% | –
40 | O=[N+]([O-])c1cccc(CSc2nnc(Cc3ccccc3)n2-c2ccc(F)cc2)c1 | inactive: 19% | –
41 | S=c1nc2ccccc2c2nc(-c3ccccc3)[nH]n12 | inactive: 5.52% | –
42 | COc1cc(-c2cc(NC(C)=O)c3ncc(-c4cc(OC)c(OC)c(OC)c4)n3c2)cc(OC)c1OC | inactive: 3.55% | –
43 | COc1ccc(-c2nc3c(c(=O)[nH]c(=O)n3Cc3ccccc3)n2C)cc1 | inactive: 1.18% | –
44 | CCc1ccc(C(=O)COC(=O)CNC(=O)c2ccc(Br)o2)cc1 | inactive: 2.15% | –
45 | COc1ccc(C(CCN)Cc2ccccc2)cc1 (stereo not given) | inactive: 9.69% | –
46 | COc1cc(OC)cc(C(=O)NNC(=S)NCc2ccco2)c1 | inactive: 13.7% | –
47 | Cc1ccc(S(=O)(=O)N(C)c2ccc(OCC(=O)Nc3nc(-c4ccccc4)cs3)cc2)cc1 | inactive: -1.89% | –
48 | COc1ccc(CCNC(=O)CCc2cn(C)c3ccccc23)c(OC)c1 | inactive: 11.4% | –
49 | Cc1c(Cl)c(C(F)(F)F)nn1CC(=O)NN | inactive: 13.5% | –
50 | CN1CCc2c(C#N)c(N3CCCCC3)nc(N3CCOCC3)c2C1 | inactive: 3.78% | –
51 | C=CCN(c1ccc(C(=O)Nc2ccc(C)c(C)c2)cc1)S(C)(=O)=O | inactive: 2.16% | –
52 | COc1ccccc1NC(=O)c1ccc(S(=O)(=O)NCc2ccco2)cc1 | inactive: 15.1% | –
53 | CC(=O)Nc1ccc(SCCC2CCCCN2C)cc1 (stereo not given) | inactive: 6.51% | –
54 | CC1(C(=O)NS(=O)(=O)C2CC2)CCN(C(=O)c2ccc(F)c(Cl)c2)C1 (stereo not given) | inactive: -7.1% | –
55 | CCOC(=O)c1c(-c2ccc(C)o2)csc1NC(=S)NC(=O)c1cccs1 | inactive: 21.8% | –
